Laboratory results as given in patent publication US20260097111A1, “ETHER LIPIDS FOR HYPERACTIVATION OF MAMMALIAN DENDRITIC CELLS” (priority 2022, published 2026).

System: murine Flt3L-DCs and CD8+ T-cells from OVA-immunized mice
Test: Flt3L-DC and OVA-specific CD8+ T-cell co-culture, IFNγ
Settings: FIG. 40; for IFNγ secretion by CD8+ T cells with inhibitor: inhibitor (IL-1RA 500 ng/ml or MCC950 50 μM) added to R848+DGP+OVA
Experimental: Murine Bone Marrow-Derived FLT3L-DC Generation. The femur and tibia were removed from 15 mice for each batch of Flt3L-DC generation. The bone marrow was flushed from the bones into sterile tubes by cutting the ends of the bones and centrifuging the bones for 30 s at 10,000×g. Bone marrow cells from 5 mice were pooled into a 50 ml conical tube and pelleted. The volume of reagents reported in this section is adjusted for processing of bone marrow cells from 5 mice. The cells were resuspended in 2 ml of cold ACK solution for 1 minute. The ACK solution was quenched by adding 10 ml of complete I10 media. The cell suspension was centrifuged at 400×g for 5 min to pellet the cells. The cell pellet was resuspended in 15 ml I10 media and passed through a 40 mm cell strainer. Cells were counted using Moxi V cell counter and resuspended in I10 media at a density of 8×10^6 cells/ml. Cells were then plated at 8×10^6 bone marrow cells/well in a 12-well tissue culture plate. Recombinant mouse Flt3L (Miltenyi) was added to cultures at a final concentration of 200 ng/ml. Differentiated cells were used for subsequent assays on day 9. The efficiency of differentiation was monitored by flow cytometry using BD Symphony A3, and CD11c+MHC-II+ cells were routinely above 80% of living cells.
Hyperactivation of Murine FLT3L-DCs. For T-cell co-culture, 9 day differentiated Flt3L-DC were resuspended at a density of 5×10^6 cells/mi, without Flt3L, and 1 ml of the cell suspension was added to 5 ml MacroTubes. The Flt3L-DC were treated under different conditions as listed in Table 9-1, in a final volume of 2 ml. The tubes were incubated at 37° C., 5% CO2 for 16 hours under static conditions.
Lipid Preparation. Lipid stocks were formulated at 650 μg/mL lipid in 4% Kolliphor P407 (KP407). Lipids were prepared from lyophilized stocks by mixing with a cold solution of KP407 at 1000 rpm for 1 hour at RT. […]
Generation of CD8+ T-cells for Co-Culture Assay. […] The cells were pooled from different mice and the cell density was determined using a Moxi V cell counter. […]

Molecule | IFNγ secretion by CD8+ T cells with inhibitor | IFNγ secretion by CD8+ T cells (reactivation) (Flt3L-DCs pre-treated with 2.85 μM R848 and/or 41 μM DGP, OVA 100 μg/ml, co-culture 96 hours)
IL-1RA: interleukin-1 receptor antagonist | partially inhibited | –
CCCCCCCCCCCCCCCCCCCCCCOC[C@@H](O)COP(=O)(O)O [Compound 2, 1-docosyl-sn-glycerol-3-phosphate] | – | did not induce IFNγ secretion in the supernatant
CC(C)(O)c1coc(S(=O)(=O)NC(=O)Nc2c3c(cc4c2CCC4)CCC3)c1 [MCC950, reference compound] | partially reduced level of reactivation | –
